Screen size: about 120,000 compounds; about 5,300 (4.4%) were called active. Inconclusive means that the source gave no clear call. Such entries were picked first, then a sample of the others. Calls follow the shape of the dose curve; as a rule, active = well fitted inhibition curve with a large enough effect; inconclusive = small, poorly fitted or top-dose-only effect; inactive = no such curve, though single readings can be large or run the other way. Potencies beside an inconclusive call are fits to weak or partial responses and may not hold up.
Experiment: qHTS Primary assay for Inhibitors of Plasmodium falciparum Dd2 growth in vitro; also: nearly all actives have a fitted effect of over 65% in size
Conditions: P. falciparum Dd2 growth, SYBR Green, 72 h; series mostly up to 28.9 µM
Method in brief: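 Infected erythrocytes (Dd2, 0.3% parasitemia, 2.5% hematocrit final) are added to compound in RPMI-1640/Albumax II medium, grown 72 h at 37C in low oxygen, then lysed with saponin/Triton-X containing SYBR Green and read by fluorescence.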
Potency is read from the fitted curve at half-maximal effect; tags tell the direction and shape of the fitted curve.

| Structure (SMILES) | Potency |
| --- | --- |
| CC1CCN(C(=O)c2ccccc2OCC2CCCN(C3CCSCC3)C2)CC1 (centres undefined) | inactive |
| CCOc1ccc(NC(=O)C2CCN(S(=O)(=O)c3cc(-c4noc(C)n4)ccc3C)CC2)cc1 | active: 3.98 µM |
| CC(C)CCCC1CN(C(=O)c2cn(C3CCC(N)CC3)nn2)CCO1 (centres undefined) | inconclusive: 8.91 µM [inhibitor, partial curve, poor fit] |
| COc1cccc(CN(C)C(C)c2cccs2)c1 (centres undefined) | inactive |
| Cn1nc(CC2CCN(c3cc(N)ncn3)CC2)n(-c2ccccc2)c1=O | inactive |
| O=C(NCc1cc(F)cc(F)c1)c1ccc(N2CC3CC(C2)[C@H]2CCCC(=O)N2C3)nc1 (some centres undefined) | inconclusive: 17.8 µM [inhibitor, single point] |
| O=C(N1CCC(n2cc(-c3nc(-c4ccccc4)no3)nn2)C1)C1(c2ccccc2)CC1 (centres undefined) | inconclusive: 2.24 µM [inhibitor, partial curve, poor fit] |
| O=C1NC2(CCN(Cc3cccnc3)C2)COc2ccccc21 (centres undefined) | inconclusive: 3.98 µM [inhibitor, full curve] |
| COc1ccc(-c2noc(Nc3ccc4c(c3)OCCO4)n2)cc1 | inactive |
| CCOc1ccccc1C(=O)NCc1nnc2cc(-c3nc(C(C)C)no3)ccn12 | inconclusive: 8.91 µM [inhibitor, single point] |
| Cc1ccc2oc(C(=O)N(Cc3cccc(F)c3)C3CCS(=O)(=O)C3)c(C)c2c1 (centres undefined) | inconclusive: 11.2 µM [inhibitor, single point] |
| COc1ccc(N2CCN(C(=O)c3cc(S(=O)(=O)N4CCCCCC4)cn3C)CC2)cc1 | inactive |
| O=C1CO[C@H]2CCN(Cc3cccc(OC(F)(F)F)c3)CC[C@@H]2N1Cc1c[nH]c2ccccc12 | active: 7.94 µM |
| Cc1ncc2c(c1CNC(=O)c1ccccc1F)CCN(C(=O)Cc1cccc(F)c1)C2 | inconclusive: 12.6 µM [inhibitor, partial curve, poor fit] |
| CCc1cccc(NC(=O)c2ccc3c(c2)N(C)C2CCCN2C3=O)c1 (centres undefined) | inactive |
| COc1ccc(-c2cc(N3CCC(NC(=O)c4cccc(C#N)c4)C3)n[nH]2)cc1 (centres undefined) | inconclusive: 3.98 µM [inhibitor, single point] |
| CCNC(=O)O[C@@H]1CO[C@H]2[C@@H]1OC[C@@H]2NC(=S)Nc1ccc(N(C)C)cc1 | inactive |
| CCN1C(=O)C2CC3(CCN(Cc4cccn4C)CC3)CN2C1=O (centres undefined) | inconclusive: 6.31 µM [inhibitor, partial curve] |
| COc1cccc(C(=O)Nc2c(C(=O)NC(C)(C)C)oc3ccccc23)c1 | inconclusive: 17.8 µM [inhibitor, single point] |
| Cc1ccc(CCNC(=O)Cn2c(-c3cccs3)cc3cc(F)ccc32)cc1 | inconclusive: 15.8 µM [inhibitor, single point] |
| CC1=NOC2(CCN(C(=O)c3ccccc3F)C2)C1 (centres undefined) | inactive |
| Cc1ccc(-n2nc3c(N4CCCC(C(=O)NCCc5ccccc5)C4)nnc(C)c3c2C)cc1 (centres undefined) | inconclusive: 10 µM [inhibitor, single point] |

| Structure (SMILES) | Potency |
| --- | --- |
| COc1ccc(CCC(=O)N2CCCCCNC(=O)[C@@H]3CCC[C@@H]32)cc1 | inactive |
| COc1ccc(CNC(=O)Nc2cccc(-c3ccc(N4CCCCC4)nn3)c2)cc1 | inconclusive: 17.8 µM [inhibitor, single point] |
| COc1ccc(CN2COc3ccc4c(-c5ccccc5)cc(=O)oc4c3C2)cc1 | active: 1.12 µM |
| COc1ccc2[nH]c3c(c2c1)CCN(C)C31CCN(C(=O)Cc2cccnc2)CC1 | inconclusive: 10 µM [inhibitor, partial curve, poor fit] |
| CN(CC1CCOCC1)C(=O)c1cccs1 | inactive |
| CCc1ccc(NC(=O)c2cc3sc(Cl)cc3n2C)cc1 | inconclusive: 17.8 µM [inhibitor, single point] |
| COc1cccc(CN2CCCC(Cc3ncc(C)n3Cc3ccccc3)C2)c1OC (centres undefined) | inconclusive: 0.891 µM [inhibitor, partial curve] |
| CC(=O)NC1(C)CN(Cc2ccc(-c3ccc4c(ccn4C)c3)s2)C1 | inconclusive: 3.98 µM [inhibitor, partial curve, poor fit] |
| COc1cccc(CNC(=O)CSc2c3c(nc4ccc(Cl)cc24)CCCC3)c1OC | inconclusive: 10 µM [inhibitor, partial curve, poor fit] |
| FC(F)(F)Oc1cccc(CNC[C@H]2Cn3ccnc3CO2)c1 | inconclusive: 14.1 µM [inhibitor, single point] |
| COc1ccc(NC(=O)N[C@H]2[C@H](O)[C@@H](N3CCC(Cc4ccccc4)CC3)[C@@H]3OC[C@H]2O3)cc1 | inactive |
| Cc1c(Cl)cccc1NC(=O)N1CCC(Oc2ncccc2C(=O)N2CCOCC2)C1 (centres undefined) | inactive |
| Cc1cccc(C)c1NC(=O)c1oc2c(c1C)-c1nn(Cc3ccccc3)cc1CC2 | inconclusive: 11.2 µM [inhibitor, single point] |
| COCCN1CCCCCC(O)c2cc(C(=O)Nc3cccc(OC)c3)ccc21 (centres undefined) | inactive |
| CC(=O)C1=C(c2ccc(Cl)c(Cl)c2)N(C(C)=O)n2c(C)nnc2S1 | active: 2.82 µM |
| CC(=O)Nc1ccc(C(=O)N2CCN(c3cccc(C=O)c3)C(=O)C2)cc1 | inconclusive: 17.8 µM [inhibitor, single point] |
| CCN1C(=O)CCc2cc(NC(=O)c3ccc(OC(F)(F)F)cc3)ccc21 | inconclusive: 11.2 µM [inhibitor, partial curve] |
| CCn1cnnc1CC1CCN(S(=O)(=O)c2ccccc2C)CC1 | inactive |
| Cc1c(F)cccc1NC(=O)N1CCC(n2cnnc2C2CC2)C1 (centres undefined) | inactive |
| CN(C)CC(=O)N1Cc2ccccc2CC2(CCCCN2Cc2ccccc2)C1 (centres undefined) | inconclusive: 5.01 µM [inhibitor, partial curve] |
| Cc1cn2nc(C(=O)N3CCC(NC(=O)c4ccc(C)s4)CC3)cc2c(=O)[nH]1 | inconclusive: 20 µM [inhibitor, partial curve, poor fit] |
| CC1(O)CCCN(c2ncc(C(C)(C)C(=O)O)c(N3CCOCC3)n2)C1 (centres undefined) | inconclusive: 20 µM [inhibitor, single point] |

Source: PubChem BioAssay AID1347417 (National Center for Advancing Translational Sciences (NCATS), 2020)
